The results in this text go back to PubChem BioAssay AID1159614 (National Center for Advancing Translational Sciences (NCATS), 2016).

In all, about 45,000 compounds went through this assay and about 65 (0.1%) were called active. The call rests on the fitted dose curve; in most records, active means well fitted activation curve with a large enough effect; inconclusive means small, poorly fitted or top-dose-only effect; inactive means no such curve, though single readings can be large or run the other way. Some of the results follow.

UniProt P54803, sequence (P54803 whole entry, looked up): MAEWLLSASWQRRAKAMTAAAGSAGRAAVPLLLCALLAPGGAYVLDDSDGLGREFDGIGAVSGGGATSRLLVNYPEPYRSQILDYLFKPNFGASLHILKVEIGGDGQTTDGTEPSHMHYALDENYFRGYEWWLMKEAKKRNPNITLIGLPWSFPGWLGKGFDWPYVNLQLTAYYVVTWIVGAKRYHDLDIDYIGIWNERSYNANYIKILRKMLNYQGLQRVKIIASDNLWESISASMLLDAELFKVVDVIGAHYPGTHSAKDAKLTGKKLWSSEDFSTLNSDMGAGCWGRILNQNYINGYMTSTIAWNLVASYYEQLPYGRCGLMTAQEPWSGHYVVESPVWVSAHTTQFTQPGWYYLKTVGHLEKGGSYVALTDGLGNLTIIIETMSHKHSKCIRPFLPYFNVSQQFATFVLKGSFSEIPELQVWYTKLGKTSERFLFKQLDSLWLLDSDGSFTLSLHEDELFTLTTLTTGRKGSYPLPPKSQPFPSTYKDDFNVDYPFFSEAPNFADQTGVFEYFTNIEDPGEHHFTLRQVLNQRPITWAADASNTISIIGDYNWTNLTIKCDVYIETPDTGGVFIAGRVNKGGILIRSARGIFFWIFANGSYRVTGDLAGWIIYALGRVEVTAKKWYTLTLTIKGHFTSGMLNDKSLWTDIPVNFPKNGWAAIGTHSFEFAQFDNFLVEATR

This assay concerns the target Galactocerebrosidase (Homo sapiens) (UniProt P54803). The assay is described as follows: A Novel Cell-Based Assay to Identify Small Molecules for B -Galactocerebrosidase. Further: 0% is about no effect; nearly all actives have a fitted effect of over 65% in size. Conditions: 145M-Twi-hGALC-G270D cells (Twitcher mouse brain line with human GALC G270D), HMU-beta-Gal fluorescence, 48 h; series mostly up to 57.5 µM; activation: at the top concentration. The method, boiled down:
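Mutant human GALC (G270D), stably expressed in a Twitcher mouse brain cell line lacking endogenous GALC, is measured in live-treated cells via 6-hexadecanoylamino-4-methylumbelliferyl-β-galactoside hydrolysis (0.1 mM final, pH 5.2) with fluorescent detection.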
As to `O=C(NCCn1cc(SCc2ccc(F)cc2)c2ccccc21)c1cccs1`, the “activation” value was inactive: 1.23%.
Consider `CC(C)Nc1nc2c(-c3cccc(Br)c3)nnn2c2ccccc12`, for which the “activation” value is inactive: -11.4%.
Then `Cc1ccccc1Cn1c(=O)n(CCC(=O)NCc2ccco2)c(=O)c2sccc21`, with inactive: -14.7%.
For `COC(=O)C1=C(C)N(C(C)C)C(=O)C1(NC(=O)c1ccc(C(C)(C)C)cc1)C(F)(F)F` (centres undefined), the “activation” value is inactive: -1.3%.
Then `O=C(CSc1nc(-c2ccccc2)nc2cc(=O)[nH]n12)Nc1ccccc1`, with inactive: 12.8%; and `Cc1ccccc1C(=O)N1c2ncnn2C2(CCCCC2)[C@@H]2CCCC[C@@H]21`, with inactive: -14.3%; and `CCc1nc(-c2ccc(C)c(S(=O)(=O)N3CCN(c4ccc(C(C)=O)cc4)CC3)c2)no1`, with inactive: -27.4%.
On to `Cn1nnnc1SCCNCc1ccc(Cl)c(Cl)c1`, for which the “activation” value was inactive: -11.2%.
Then `COc1ccccc1NC(=O)C1=C(C)Nc2nc(-c3ccco3)nn2C1c1ccccc1F` (centres undefined), with inactive: -7.83%.
Regarding `CCCc1cc(=O)[nH]c(Nc2ccc(OCC)cc2)n1`, the “activation” value is inactive: -15.2%.
Then `CCOc1ccc(C(=O)Nc2ccc(-n3nncc3-c3ccc(OC)cc3)cc2)cc1`, with inactive: -13.7%; and `COc1cccc(CCNC(=O)c2cnc3sc(N4CCOCC4)nn3c2=O)c1`, with inactive: -18.2%.
Then `Cc1cccc(S(=O)(=O)c2cn(C)c3cc(N4CCN(c5ccccc5)CC4)c(F)cc3c2=O)c1`, with inactive: 7.65%; and `Cc1ccc(Cn2c(C)c3cnn(CC(=O)NCCc4ccc(Cl)cc4)c(=O)c3c2C)cc1`, with inactive: -4.62%.
Then `Cc1ccc(CN2CCCn3nc(C(=O)NCCc4cccc(C)c4)cc3C2=O)cc1`, with inactive: -15.1%; and `CCc1nc(SC)ncc1C(=O)N1CCN(c2cc(C)ccc2C)CC1`, with inactive: 5.81%; and `CCOC(=O)c1c(S(=O)(=O)N2CCCC(C(=O)NCc3ccccc3OC)C2)c(C)n(C)c1C` (centres undefined), with inactive: -21%.
Take `Cc1ccc(NC(=O)c2ccc(=O)n(Cc3ccccc3C)c2)c(C)c1`: the “activation” value was inactive: -10.1%.
Then `Cc1ccc(CN2CCCn3nc(C(=O)NCCc4ccccc4Cl)cc3C2=O)cc1`, with inactive: -8.46%; and `COc1cccc(CNC(=O)C2CCCN(c3nc4ccccc4n4cccc34)C2)c1` (centres undefined), with inactive: -43.9%.
For the compound `Cc1nn(C)c2c1c(-c1ccccc1)cc(=O)n2CC(=O)NC(C)C`, the “activation” value is inactive: -7.68%.
Consider `Cc1ccc(CNC(=O)c2ccc3c(O)c(S(=O)(=O)c4ccc(Cl)cc4)c(=O)[nH]c3c2)cc1`, for which the “activation” value is inactive: -19.8%.
Take `COc1ccc(CCNCc2ccc3c(c2)n(C)c(=O)n3C)cc1OC`: the “activation” value was inactive: -13.7%.
`Cc1ccc(-c2nc(N3CCCC(C)C3)c3ccccc3n2)cc1` (centres undefined): the “activation” value was inactive: -8.92%.
For `NC(=O)C1CCN(S(=O)(=O)c2ccc(N3CCCCS3(=O)=O)cc2)CC1`, the “activation” value was inactive: -7.12%.
Then `CCc1ccccc1NC(=O)CSc1nc2c(oc3ccccc32)c(=O)n1C`, with inactive: -13%; and `CCCOc1ccc(C2CC(=O)Nc3c2c(=O)n(C)c(=O)n3C)cc1OC` (centres undefined), with inactive: -11.7%.
For `COCC(C)Nc1ncnc2c1cnn2-c1ccc(C)c(C)c1` (centres undefined), the “activation” value is inactive: -15%.
Then `COc1ccc(-n2nc(C(=O)NCc3ccc(F)cc3Cl)c3c4ccccc4n(C)c3c2=O)cc1Cl`, with inactive: -15%.
Then `CCOc1ccc(N2CC(NC(=O)C3CC3)CC2=O)cc1` (centres undefined), with inactive: -1.41%.
As to `COc1ccc(C)cc1NC(=O)c1cc(S(=O)(=O)N2CCN(c3cccc(C)c3C)CC2)ccc1F`, the “activation” value was inactive: 2.66%.
For `Clc1ccc(Nc2c(-c3ccccc3Cl)nc3ccc(Cl)cn23)cc1`, the “activation” value was inactive: -2.32%.
Take `Cc1ccc(C(=O)Nc2cccc(C(=O)OCc3cc(=O)n4nc(C5CC5)sc4n3)c2)cc1`: the “activation” value is inactive: -11.3%.
Take `Cc1c(C(=O)Nc2ccccc2Cl)oc2ccc(S(=O)(=O)N3CCCCC3)cc12`: the “activation” value was inactive: 1.26%.
`CCCn1c2ccc(F)cc2c2nnc(SCCN(CC)CC)nc21`: the “activation” value is inactive: -30.9%.
For the compound `Cc1cccc(C(=O)Oc2c(Sc3ccccc3)c(C)nn2C(C)(C)C)c1`, the “activation” value was inactive: -21.5%.
Then `Cn1c(=O)c(=O)n(C)c2cc(S(=O)(=O)N3CCN(c4ccccc4)CC3)ccc21`, with inactive: -10.3%.
Then `CC(NC(=O)c1ccc2c(c1)sc1nc(-c3ccccc3)cn12)C12CC3CC(CC(C3)C1)C2` (centres undefined), with inactive: -6.3%.
As for `CCCCN(CC)CCCNC(=O)Cn1ncc2c3ccccc3n(Cc3ccc(F)cc3)c2c1=O`, the “activation” value was inactive: -4.34%.
Then `CCc1nn(CC(=O)Nc2ccc(NC(C)=O)cc2)c(=O)c2cc3sccc3n12`, with inactive: -15.1%.
Then `COc1ccc(CNC(=O)CSc2c3c(nc4ccc(Cl)cc24)CCCC3)cc1`, with inactive: 0.972%.
Then `COc1ccc(S(=O)(=O)NCc2nc3nc(C)cc(C)n3n2)cc1OC`, with inactive: -12.5%; and `COc1ccc(Nc2c3c(nc4nncn24)CCC3)cc1OC`, with inactive: 3.11%.
As for `Cc1ccc(S(=O)(=O)N(CCc2ccccc2)CC(=O)Nc2ccc(Br)cc2)cc1`, the “activation” value was inactive: -10.7%.
For the compound `CN(C)CCN(Cc1ccsc1)c1ccccn1`, the “activation” value was inactive: -7.62%.
Then `COCCNC(=O)CN1C(=O)c2cccnc2Oc2ccc(Cl)cc21`, with inactive: -5.72%; and `CCOC(=O)c1ccc(N2C(=O)c3n[nH]c(-c4ccco4)c3C2c2cccc(O)c2)cc1` (centres undefined), with inactive: -1.98%.
Then `O=C(Cn1cnc2onc(-c3ccc(Cl)cc3)c2c1=O)Nc1ccc(F)cc1`, with inactive: 10%; and `COc1ccc(-c2nc(CNS(=O)(=O)c3cccc(F)c3)cs2)cc1`, with inactive: -26.5%.
In the case of `Cc1cccc(NC(=O)c2oc3ccccc3c2NC(=O)Cc2coc3ccc(C(C)C)cc23)c1`, the “activation” value was inactive: 21.9%.
Regarding `CCc1ccccc1NC(=O)Cn1c(SCc2ccc(F)cc2)nc2ccncc21`, the “activation” value was inactive: -5.28%.
In the case of `COc1ccc(-c2nc(CCNC(=O)c3ccc(Br)o3)cs2)cc1`, the “activation” value is inactive: -8.38%.
Then `O=[N+]([O-])c1cc(-c2nc(-c3ccccc3)no2)ccc1N1CCOCC1`, with inactive: -6.85%; and `CCOc1ccccc1NC(=O)C1=C(C)Nc2ncnn2C1c1ccc(C)o1` (centres undefined), with inactive: -11.7%; and `CCc1cccc(CC)c1NC(=O)CCS(=O)(=O)c1ccc2c(c1)CCN2C(C)=O`, with inactive: -7.79%.
Then `Cc1ccc(Nc2sc(C(=O)c3ccccc3)c(N)c2C(N)=O)cc1`, with inactive: 3.29%.
Then `CC1CCN(C(=O)C2COc3ccccc3C2)CC1` (centres undefined), with inactive: -18.6%.
For `O=C(CCCn1c(=O)c2cccn2c2ccccc21)NCc1ccccc1Br`, the “activation” value is inactive: -8.52%.
Then `O=C(NCc1ccccc1)C(=O)Nc1c2c(nn1-c1ccccc1)CSC2`, with inactive: -8.98%; and `Cc1cc(-c2ccc(C)c(S(=O)(=O)NCC3CCN(Cc4ccccc4F)CC3)c2)on1`, with inactive: -10.7%; and `Cc1ccc(SCC(=O)Nc2ccc3oc(-c4cccc(Cl)c4)nc3c2)cc1`, with inactive: -12.9%.
Then `O=C(Cn1ncc2c3ccccc3n(Cc3ccc(F)cc3)c2c1=O)NCc1ccccn1`, with inactive: 1.59%; and `COc1ccc(OC)c(CNCc2c(C(=O)O)n(Cc3cccc(F)c3)c3cc(OC)ccc23)c1`, with inactive: -2.61%.
For the compound `Cc1ccc(C(c2c(O)cc(C)n(Cc3ccco3)c2=O)N2CCC(C)CC2)cc1` (centres undefined), the “activation” value is inactive: -0.815%.
With `Cc1ccc(-c2nc3ccccc3o2)cc1NC(=O)Cc1ccc(Cl)cc1`, the “activation” value is inactive: -12.6%.
Turning to `O=C(CCn1c(=O)c2sccc2n(Cc2ccc(F)cc2Cl)c1=O)NCc1ccc2c(c1)OCO2`, the “activation” value was inactive: -16.9%.
Then `O=C(Nc1sc2c(c1C(=O)NCC1CCCO1)CCCC2)c1cc(=O)c2ccccc2o1` (centres undefined), with inactive: -11.8%; and `Cc1cccc(-c2nc(CN3CCCC(C(=O)NCCc4ccc(Cl)cc4)C3)c(C)o2)c1` (centres undefined), with inactive: -0.68%; and `COc1ccc2cc3[n+](cc2c1OC)CCc1cc2c(cc1-3)OCO2`, with inactive: -11.9%.
Then `Cc1ccccc1CCNC(=O)c1ccc2c(c1)nc1n2CCCCC1`, with inactive: -8.78%; and `Cc1cc(C)cc(NC(=O)C2CC(=O)N(c3ccccc3)C2)c1` (centres undefined), with inactive: -18.2%.
In the case of `CCCCCCCCCCOCC(O)CN` (centres undefined), the “activation” value is inactive: -14.6%.
Then `Cc1ccc2c(c1)c1c(c(=O)n(Cc3ccccc3)c(=O)n1CC(=O)Nc1ccccc1F)n2C`, with inactive: -11.5%; and `COC(=O)c1ccccc1NC(=O)CSc1nc(C)c(Cl)c(C)c1C#N`, with inactive: -5.28%.
Then `Cc1ccc(-c2cc(C(=O)Oc3ccc(C#N)cc3)no2)cc1C`, with inactive: -12.9%; and `CCc1ccc(NS(=O)(=O)c2[nH]ncc2C(=O)OC)cc1`, with inactive: -8.92%.
Regarding `Cc1ccccc1Cn1c(=O)n(-c2ccc(Cl)cc2)c(=O)c2c3c(sc21)CCCC3`, the “activation” value is inactive: -12.3%.
Consider `COc1ccc(Cn2c(C(=O)O)c(CNCc3ccc(SC)cc3)c3ccc(OC)cc32)cc1`, for which the “activation” value is inactive: 3.47%.
As for `CC(C)NC(=O)CN1C(=O)CCn2nc(-c3cn(C)c4ccccc34)cc21`, the “activation” value was inactive: -18.1%.
Then `Cc1ccc2nc(NC(=O)CSc3nccn3Cc3ccc(F)cc3)sc2c1`, with inactive: -39.9%.
Then `COCCNc1ccc2cc(S(=O)(=O)N3CCCCC3)ccc2n1`, with inactive: -6.98%; and `O=C(O)c1ccc(Cn2c(SCc3ccc(F)cc3)nc3ccncc32)cc1`, with inactive: -10.4%.
`CCC(C)NC(=O)c1sc2nc(C)c(C(=O)Nc3ccc(C)cc3C)c(-c3ccc(NC(C)=O)cc3)c2c1N` (centres undefined): the “activation” value is inactive: -11.2%.
As to `COCCNC(=O)CCCn1c(SCC(=O)NCc2ccc(C)cc2)nc2c(sc3ccccc32)c1=O`, the “activation” value is inactive: -15.7%.
Consider `COc1cccc(N2CCN(C(=O)CN3CCSc4ccccc43)CC2)c1`, for which the “activation” value is inactive: -4.86%.
Then `COc1ccc(OC)c(S(=O)(=O)NCC(c2cccs2)S(=O)(=O)c2ccc(F)cc2)c1` (centres undefined), with inactive: -17%; and `Cc1cc(F)ccc1NC(=O)C1CCC(CNS(=O)(=O)c2ccc3c(c2)CCCC(=O)N3)CC1` (centres undefined), with inactive: -6.67%.
Then `Cc1ccccc1NC(=O)c1sc2nc3c(cc2c1N)CN(Cc1ccccc1)CC3`, with inactive: -3.91%; and `CCCS(=O)(=O)N1CCC(C(=O)NCCOC)CC1`, with inactive: 7.44%; and `COc1ccc(-c2nn(-c3ccccc3)cc2C2NC(=O)NC(C)=C2C(=O)OC(C)C)cc1OC` (centres undefined), with inactive: 15.9%.
Consider `Cc1ccc(-c2noc(-c3nnn(-c4cccc(C(F)(F)F)c4)c3N)n2)cc1`, for which the “activation” value was inactive: -9.97%.
Then `O=C(Nc1cc2c(cc1C(=O)c1ccccc1Br)OCCO2)c1cccc(Cl)c1`, with inactive: -25.6%.
Then `Cc1ccc(-n2nc(C)c3c(C)cc(=O)n(CC(=O)Nc4cccc(C)c4C)c32)cc1`, with inactive: 2.84%.
`O=C(c1cc2c(=O)oc3ccccc3c2s1)N1CCN(c2ccccc2)CC1`: the “activation” value is inactive: -3%.
Then `COc1ccc2c(c1)c1c(c(=O)n(-c3cccc(C)c3)c(=O)n1Cc1cccc(Cl)c1)n2C`, with inactive: 3.58%; and `COc1ccccc1CNc1ncnc2c1cnn2-c1ccc(C)cc1`, with inactive: -8.16%; and `Cc1nc(-n2nc(C)c(CCC(C)C)c2C)sc1C(=O)Nc1ccc(Cl)cc1`, with inactive: -6.31%.
Regarding `COc1ccc(N2C(=O)CSC23C(=O)N(Cc2cccc(F)c2)c2ccccc23)cc1Cl` (centres undefined), the “activation” value was inactive: -31.5%.
Then `O=S(=O)(c1ccc2nc(N3CCN(c4ccccc4F)CC3)ccc2c1)N1CCCCC1`, with inactive: -2.82%.
